153 variants from a collection of fitness landscapes (doi:10.1016/j.celrep.2020.107928) can be followed below.

In all, about 81,000 sequences were measured (“one-hybrid fitness for binding parS DNA”: median about -0.17, highest 2% from about 0.51 on). This is one part of the list. A value given as a limit tells only on which side of the number the result lay.

The chains are these.
B1: Caulobacter ParB omega fusion; a variant is named by its letters at X, in order, B8GW30 (parent)
chain: MESVVVGEPGMSEGRRGLGRGLSALLGEVDAAPAQAPGEQLGGSREAPIEILQRNPDQPRRTFREEDLEDLSNSIREKGVLQPILVRPSPDTAGEYQIVAGERAWRAAQRAGLKTVPIMVRELDDLAVLEIGIIENVQRADLNVLEEALSYKVLMEKFERTQENIAQTIGKSXSHVANXMRLLXLPDEVQSYLVSGELTAXHARAIAAAADPVALAKQIIEGGLSVRETEALARKAPNLSAGKSKGGRPPRVKDTDTQALESDLSSVLGLDVSIDHRGSTGTLTITYATLEQLDDLCNRLTRGI

The variants in the assay derive from B1. Nature of the assay: one-hybrid fitness for binding parS DNA (scaled: cognate 1, non-cognate 0); higher = stronger binding. As to conditions: with parS DNA site. Summed up: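 Values were rescaled so that cognate is 1 and non-cognate is 0. Each is a fitness, the log change in a variant's read ratio to wild type from Illumina reads of plasmids before and after selection, with three replicate libraries pooled and variants under 10 reads dropped. Selection of the Caulobacter ParB libraries, four specificity codons randomised, used E. coli USO with a HIS3 reporter, site 19 bp from the promoter, on M9-minus-histidine with 0.1 mM IPTG and 5 mM 3-AT for 48 hours at 37°C.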
As to QPYL, the “one-hybrid fitness for binding parS DNA” value is no more than 0.2. Turning to TEVL, the “one-hybrid fitness for binding parS DNA” value is no more than 0.2.

Consider LFTI, for which the “one-hybrid fitness for binding parS DNA” value is no more than 0.2. As to RWHQ, the “one-hybrid fitness for binding parS DNA” value was no more than 0.2. To ENGR belongs no more than 0.2; to NSKG, no more than 0.2. For RTTF, the “one-hybrid fitness for binding parS DNA” value came out at 0.253. In the case of YVWI, the “one-hybrid fitness for binding parS DNA” value was no more than 0.2. The figure for QNDR is no more than 0.2; for TEYF it is no more than 0.2. The figure for DCRN is no more than 0.2. To WAAG belongs no more than 0.2; to LPSS, no more than 0.2; to WWPY, no more than 0.2. Turning to HLTW, the “one-hybrid fitness for binding parS DNA” value is no more than 0.2. For HGLE, the “one-hybrid fitness for binding parS DNA” value is no more than 0.2.

For WCKY, the “one-hybrid fitness for binding parS DNA” value was no more than 0.2.

Turning to HRLR, the “one-hybrid fitness for binding parS DNA” value was no more than 0.2. As to PDKG, the “one-hybrid fitness for binding parS DNA” value was no more than 0.2.

TDAY: the “one-hybrid fitness for binding parS DNA” value is no more than 0.2.

Regarding PTCG, the “one-hybrid fitness for binding parS DNA” value is no more than 0.2. EYGF: the “one-hybrid fitness for binding parS DNA” value is no more than 0.2. To IDNA belongs no more than 0.2; to LGTG, no more than 0.2. To RKHD belongs no more than 0.2; to KFNS, no more than 0.2. On to LIDR, for which the “one-hybrid fitness for binding parS DNA” value was no more than 0.2.

VQCG: the “one-hybrid fitness for binding parS DNA” value was no more than 0.2. To HYST belongs no more than 0.2. TWLR: the “one-hybrid fitness for binding parS DNA” value was no more than 0.2. The figure for SNCS is no more than 0.2; for WKSM it is no more than 0.2; for TTKA it is no more than 0.2. The figure for KSHG is no more than 0.2. To VTFG belongs no more than 0.2; to TEPS, no more than 0.2; to PCMT, no more than 0.2. Turning to RQIY, the “one-hybrid fitness for binding parS DNA” value was 0.256.

Consider HSDC, for which the “one-hybrid fitness for binding parS DNA” value is no more than 0.2. The figure for RPQN is no more than 0.2. Take TASW: the “one-hybrid fitness for binding parS DNA” value is no more than 0.2. To LMNP belongs no more than 0.2; to YKHS, no more than 0.2.

As for LWHN, the “one-hybrid fitness for binding parS DNA” value was no more than 0.2. Consider GQPL, for which the “one-hybrid fitness for binding parS DNA” value is no more than 0.2. To NKTF belongs no more than 0.2; to ANDS, no more than 0.2; to KVQS, no more than 0.2. To GMHD belongs no more than 0.2; to SRLL, no more than 0.2. To VQDR belongs no more than 0.2; to CQLR, no more than 0.2. With SGAL, the “one-hybrid fitness for binding parS DNA” value is no more than 0.2. Regarding RKEV, the “one-hybrid fitness for binding parS DNA” value is no more than 0.2. With SKMQ, the “one-hybrid fitness for binding parS DNA” value is no more than 0.2. Consider MWNS, for which the “one-hybrid fitness for binding parS DNA” value was no more than 0.2. The figure for GHYT is no more than 0.2; for RPVQ it is no more than 0.2; for ITMC it is no more than 0.2.

As to APWE, the “one-hybrid fitness for binding parS DNA” value was no more than 0.2.

As to KCMT, the “one-hybrid fitness for binding parS DNA” value was no more than 0.2. The figure for EIIG is no more than 0.2. On to ETSA, for which the “one-hybrid fitness for binding parS DNA” value was no more than 0.2. The figure for SKYD is no more than 0.2. The figure for SFQG is no more than 0.2; for IAPE it is no more than 0.2.

Consider VFSN, for which the “one-hybrid fitness for binding parS DNA” value was no more than 0.2.

FYNG: the “one-hybrid fitness for binding parS DNA” value is no more than 0.2.

As to RTII, the “one-hybrid fitness for binding parS DNA” value is no more than 0.2. The figure for HALL is no more than 0.2; for DSHC it is no more than 0.2. To GWGD belongs no more than 0.2; to TVNP, no more than 0.2; to IHNC, no more than 0.2. The figure for SHMI is no more than 0.2. Consider ALLY, for which the “one-hybrid fitness for binding parS DNA” value was no more than 0.2. To GFLW belongs no more than 0.2; to RPVM, no more than 0.2. With ATMF, the “one-hybrid fitness for binding parS DNA” value is no more than 0.2. GKSY: the “one-hybrid fitness for binding parS DNA” value was no more than 0.2. Take TASL: the “one-hybrid fitness for binding parS DNA” value is no more than 0.2. As to QMMY, the “one-hybrid fitness for binding parS DNA” value was no more than 0.2. The figure for TRQT is no more than 0.2; for SSDS it is no more than 0.2. In the case of CVGK, the “one-hybrid fitness for binding parS DNA” value is no more than 0.2. To GSLD belongs no more than 0.2.

In the case of AMWC, the “one-hybrid fitness for binding parS DNA” value was no more than 0.2.

Consider THEY, for which the “one-hybrid fitness for binding parS DNA” value is no more than 0.2.

For the variant VSRW, the “one-hybrid fitness for binding parS DNA” value was no more than 0.2.

For the variant ASTS, the “one-hybrid fitness for binding parS DNA” value was no more than 0.2. FMNG: the “one-hybrid fitness for binding parS DNA” value is no more than 0.2.

On to PWTW, for which the “one-hybrid fitness for binding parS DNA” value is no more than 0.2. With LGLR, the “one-hybrid fitness for binding parS DNA” value is no more than 0.2. On to WVNC, for which the “one-hybrid fitness for binding parS DNA” value is no more than 0.2.

As for TWES, the “one-hybrid fitness for binding parS DNA” value was no more than 0.2. To MKAC belongs no more than 0.2. To LITQ belongs no more than 0.2; to QDTK, no more than 0.2; to TPFC, no more than 0.2.

On to AIRY, for which the “one-hybrid fitness for binding parS DNA” value was no more than 0.2. To FSDI belongs no more than 0.2; to WFAS, no more than 0.2; to NSRN, no more than 0.2. The figure for DALL is no more than 0.2; for RTFS it is 1.03. On to CPPT, for which the “one-hybrid fitness for binding parS DNA” value was no more than 0.2. The figure for LFLC is no more than 0.2.

As to PTKM, the “one-hybrid fitness for binding parS DNA” value was no more than 0.2. As for WKLD, the “one-hybrid fitness for binding parS DNA” value came out at 0.243. CFPH: the “one-hybrid fitness for binding parS DNA” value is no more than 0.2. To RYLM belongs 0.324; to DQCG, no more than 0.2; to FLFI, no more than 0.2. On to THTL, for which the “one-hybrid fitness for binding parS DNA” value is no more than 0.2. The figure for YNRF is no more than 0.2; for DSDT it is no more than 0.2; for YEHG it is no more than 0.2.

For the variant PCEW, the “one-hybrid fitness for binding parS DNA” value was no more than 0.2. The figure for RIVW is no more than 0.2. The figure for WVHV is no more than 0.2; for SSPA it is no more than 0.2. In the case of IMPE, the “one-hybrid fitness for binding parS DNA” value was no more than 0.2.

For LGHV, the “one-hybrid fitness for binding parS DNA” value was no more than 0.2. For PDGL, the “one-hybrid fitness for binding parS DNA” value was no more than 0.2.

With RYQT, the “one-hybrid fitness for binding parS DNA” value stood at 0.853. To QITF belongs no more than 0.2. To WYGR belongs 0.204. The figure for RVND is no more than 0.2; for ALKC it is no more than 0.2. NYAV: the “one-hybrid fitness for binding parS DNA” value was no more than 0.2. To SPPA belongs no more than 0.2. With GSFC, the “one-hybrid fitness for binding parS DNA” value is no more than 0.2. The figure for RSTH is 0.234; for HMNS it is no more than 0.2. The figure for ATYG is no more than 0.2; for DLHM it is no more than 0.2; for FSTG it is no more than 0.2. The figure for FRNV is no more than 0.2. Turning to SPRI, the “one-hybrid fitness for binding parS DNA” value is no more than 0.2. With RMSK, the “one-hybrid fitness for binding parS DNA” value was no more than 0.2. On to INSS, for which the “one-hybrid fitness for binding parS DNA” value is no more than 0.2. With CMRY, the “one-hybrid fitness for binding parS DNA” value was no more than 0.2. For MMWN, the “one-hybrid fitness for binding parS DNA” value is no more than 0.2. The figure for VVND is no more than 0.2; for QPGG it is no more than 0.2.

For SPRT, the “one-hybrid fitness for binding parS DNA” value was no more than 0.2. The figure for CKLP is no more than 0.2. Turning to ATSN, the “one-hybrid fitness for binding parS DNA” value was no more than 0.2. HFGR: the “one-hybrid fitness for binding parS DNA” value was no more than 0.2. To QGRH belongs no more than 0.2; to RWNM, 0.221; to MNCS, no more than 0.2. Turning to TNAR, the “one-hybrid fitness for binding parS DNA” value was no more than 0.2.
